# “And” between values parts separate entries of the source, which are not always exact repeats. Equal values may be shown once. Hit rate of the full screen: of about 420,000 compounds, about 75 (0.02%) were called active. Calls come from the whole dose curve; as a rule, active = well fitted activation curve with a large enough effect; inconclusive = small, poorly fitted or top-dose-only effect; inactive = no such curve, though single readings can be large or run the other way. Only a part is listed here, and it is no random draw.
# Experiment: qHTS for Inducers of the Endoplasmic Reticulum Stress Response (ERSR) in Human Glioma: qHTS; note: nearly all actives have a fitted effect of over 35% in size; for activation: % of control where 0% means no effect
# Conditions: U87-MG GRP78 promoter luciferase reporter, 16 h; activation: active compounds read high
# Method in brief: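 ERSR induction read as luciferase luminescence (Bright-Glo, 10 min at room temperature) in stably transfected human U87-MG glioma cells exposed to compounds for 16 h, using GRP78 as sensor.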
# Potency is the fitted concentration of half-maximal effect.
Compound,activation,Potency
O=C(Nc1cnc2ccccc2c1)N1CCCCC1,inactive: -13.1%,
CCCCOC(=O)c1cc2c(cn1)[nH]c1ccccc12,inactive: 3.2% and inactive: 3.53%,
CC1CCc2nc(NC(=O)c3ccco3)sc2C1 (stereo not given),inactive: -18.2%,
O=C(/C=C/Sc1ncn[nH]1)c1ccc(Cl)cc1,inactive: -15.7%,
COC(=O)COc1cc(Br)c(/C=C2/SC(=O)N(CC(=O)N3CCCC3)C2=O)cc1OC,inactive: -14.9%,
COc1cc2nc(N3CCCN(C)CC3)nc(NC3CCN(Cc4ccccc4)CC3)c2cc1OC,inactive: -9.4% and inactive: -11.7%,
CC(C)(C)OC(=O)N[C@@H](Cc1ccccc1)c1nnc(S(=O)(=O)Cc2cccc(F)c2)o1,inactive: 2.59%,
CCCCCCCCCCCCCCCCCCNC(=O)OCC(COP(=O)([O-])OCC[n+]1ccsc1)OC (stereo not given),inactive: -14.2%,
CSc1ccc(/C=C(\NC(=O)c2ccco2)C(=O)N2CCCCC2)cc1,inactive: -3.61%,
OC(COc1ccc2ccccc2c1)CN1CCOCC1 (stereo not given),inactive: 0.822%,
Cc1ccc(-c2onc3ccc(C(=O)O)cc23)cc1,inactive: -14.3%,
CC1=NOC(=O)/C1=C\c1ccc(-c2ccccc2Br)o1,inactive: -15.2%,
Cc1cc(C)cc(N2C(=O)C3CC=CCC3C2=O)c1 (stereo not given),inactive: -12.9%,
COC(=O)C(C)Oc1cc(OC(C)C(=O)OC)c2c(-c3ccccc3)cc(=O)oc2c1 (stereo not given),,active: 31.6 µM
Cc1ccc(-n2c(C)cc(C(=O)CSc3nnc4ccccn34)c2C)cc1,inactive: -12.3%,
CCOc1cc(CNCCO)cc(Br)c1OCc1ccccc1Cl,inactive: -18.6%,
CCN1CCCC1CNC(=O)c1cc(S(N)(=O)=O)ccc1OC (stereo not given),inactive: -3.41% [middle of 5 runs],
Cc1cc(C(C)(C)C)cc(C)c1Cn1c2[n+](c3ccc(C(F)(F)F)cc31)CCCCC2,inactive: -14.8%,
COc1ccc(S(=O)(=O)n2nc(OC(=O)c3ccc(C)cc3)cc2N)cc1,inactive: -14.6%,
O=C1C(Nc2ccccc2)=CC(=O)c2ncccc21,inactive: -12% and inactive: -11.6%,
Cc1ccc(N(NC(=O)C(O)(c2ccccc2)c2ccccc2)C(=O)CCl)cc1,inactive: -14.2%,
CC(C)(C)C(=O)Cn1ncc(Br)c(Br)c1=O,inactive: -14.5%,
O=C(NCc1ccc2c(c1)OCO2)c1nc(S(=O)(=O)Cc2ccccc2)ncc1Cl,inactive: -18.6%,
CCOC(=O)C1CCN(c2ncnc3c2cnn3-c2ccc(OC)cc2)CC1,inactive: -13.8%,
O=C(Nc1nc2ccccc2[nH]1)c1ccccc1OC(F)F,inactive: -12.5%,

Compound,activation,Potency
Cc1ccc(S(=O)(=O)N2CCC(=O)N([C@H](COCc3cccc(C(F)(F)F)c3)Cc3ccccc3)CC2)cc1,inactive: -3.25%,
Cc1ccc(NCC(=O)N=Nc2c(O)[nH]c3ccc([N+](=O)[O-])cc23)cc1,,active: 39.8 µM
C#C[C@]1(O)CC[C@H]2[C@@H]3CCC4=Cc5oncc5C[C@]4(C)[C@H]3CC[C@@]21C,inactive: -3.69% and inactive: -2.31%,
O=C(Nc1ccc([N+](=O)[O-])cc1Cl)c1cc(Cl)ccc1O,inactive: -8.12% [middle of 5 runs],
Cc1noc(C)c1S(=O)(=O)N(C)C[C@@H]1OCc2cnnn2CCCC(=O)N([C@@H](C)CO)C[C@H]1C,inactive: -2.59%,
CC(C)(C)OC(=O)C[C@H]1C/C=C\C[C@@H](CC(=O)N[C@@H](CO)Cc2ccccc2)C(=O)NC[C@H](c2ccccc2)OC1=O,inactive: 4.03%,
CCCN1C=CC(=C2C(=O)c3ccccc3C2=O)C=C1,inactive: -14.7%,
CC(C)(C)OC(=O)NCCc1nnc(S(=O)(=O)Cc2ccc(Cl)cc2Cl)o1,inactive: -16.9%,
C[C@@H]1OC2C3=C(C(=O)[C@H]4O[C@@H]4[C@H]3O)[C@@H]1[C@H]1[C@H](C)OC=C3[C@H](O)[C@H]4O[C@H]4/C(=N\OCc4ccccc4)[C@@]321,inactive: 17.9%,
Cc1occc1C(=O)N/N=C/C=C\c1ccccc1[N+](=O)[O-],inactive: 5.59%,
COc1ccc(-c2cc3nc(CCl)[nH]c(=O)c3s2)cc1,inactive: -14.2%,
O=C1C(Cl)=C(NCCN2CCOCC2)C(=O)c2ncccc21,inactive: -12.1%,
CCN1CCC[C@H]1CNC(=O)c1cc(S(N)(=O)=O)ccc1OC,inactive: -2.86% [middle of 5 runs],
CCc1ccccc1N(CC)C(=O)C1CCN(c2ncnc3c2nc2n3CCCCC2)CC1,inactive: -3.34%,
COC1=C(OC)C(=O)c2ccccc2C1=O,inactive: -14%,
COc1ccc(/C=C\C(=O)Nc2ccccc2C(=O)O)cc1OC,inactive: -11.5%,
O=C(NN1C(=O)/C(=C/c2ccc(O)c([N+](=O)[O-])c2)SC1=S)c1ccccc1Cl,inactive: -3.19%,
Nc1cccc(Nc2nc(OC(C(F)(F)F)C(F)(F)F)nc(OC(C(F)(F)F)C(F)(F)F)n2)c1,inactive: -18.9%,
Cc1cc(CC(C)CC(C)(C)C)n(O)c(=O)c1 (stereo not given),inactive: -5.4%,
CCOC(=O)COc1ccc(Br)cc1/C=C\c1[nH]c(=O)[nH]c(=O)c1[N+](=O)[O-],inactive: -13.6%,
CC[C@H](C)[C@H]1O[C@]2(CC[C@@H]1C)C[C@@H]1C[C@@H](CC=C(C)[C@@H](O[C@H]3C[C@H](OC)[C@@H](O[C@H]4C[C@H](OC)[C@@H](O)[C@H](C)O4)[C@H](C)O3)[C@@H](C)C=CC=C3CO[C@@H]4[C@H](O)C(C)=C[C@@H](C(=O)O1)[C@]34O)O2,inactive: -0.821%,
CCOc1cc(/C=N/O)cc(Br)c1OCc1ccc(Cl)cc1,inactive: -18.7%,
Cc1ccc(-c2csc3ncnc(Sc4nnc(CN5CCCCCC5=O)o4)c23)cc1,inactive: -15.5%,
COc1ccc(-c2coc3cc(O)cc(O)c3c2=O)cc1,inactive: 5.49% and inactive: -1.29%,
Cc1cc(NC(=O)CCS(=O)(=O)c2nc(-c3ccccc3)cc(C(F)(F)F)n2)no1,inactive: -15.1%,
